Reference: the supplement of paper PMC10126150
Values marked as one replicate rest on one cluster of the flow cell; about a third of the high ones do not repeat.

Tested on: ATP
Assay: switch fluorescence ratio, 500 uM ATP over buffer (Cy3 cluster intensity, sum of 5 cycles each) (fold (ratio)); higher = stronger signal-on switching upon ATP binding; sequences stand for … in TCGTCGGCAGCGTCAGATGTGTATAAGAGACAGTTTTTTTTTTTTTTTTTTTTTTTTT…TC
Conditions: aptamer strand: ATP DNA aptamer (quencher-CACCTGGGGGAGTATTGCGGAGGAAGG + anchor), 100 nM annealed; ATP concentration: 500 uM; one replicate
Method in brief: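 Switching-strand clusters labelled with Cy3 on a modified Illumina MiSeq flow-cell were annealed to 100 nM quencher-labelled ATP aptamer, imaged in selection buffer, and re-imaged after 15 min with 500 uM ATP at 22 °C. This was done over five cycles with NaOH stripping and re-annealing in between. The fluorescence ratio is summed target-cycle over summed buffer-cycle Cy3 intensity per cluster, averaged per switch-domain sequence, excluding clusters outside 100-1000 RFU.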
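Further: ATP exposure 15 min at 22 °C before imaging.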

Sequence | switch fluorescence ratio
GCCCCCGGGT | 0.998
ATAGCCGGGA | 1.05
TGTACTATAG | 1
AACCTGGAT | 1.31
ACGGTATTGT | 1.13
ATGTAATGCT | 1.06
GGGTCCGTGG | 1.01
GCTTCCTATA | 1.1
CTCCAATTGT | 1.1
TCATTGAAGA | 0.98
TCGCAAAAAA | 1.4
GCGTGGGTG | 1.04
CGCGGGCCGG | 0.944
GCGCTAAATC | 1.14
TAAACGATTG | 0.974
CCGCACGTCG | 1.53
GCCGTGTGAC | 0.949
GAGGGTGTGC | 1.01
TTTCGTGGCG | 0.945
TTTCCTTGGG | 1.11
GACTCCCTGA | 1.22
TAGACGGCAT | 0.98
GCGTTAAT | 0.992
TTAGTCATGG | 0.993
TTACCCATCG | 0.956
CAATATGGTG | 1.03

Sequence | switch fluorescence ratio
ACGAAGATAT | 1.04
ACGGATCGTC | 0.961
TTGTGCAGCT | 1.03
GCGGTCTGCG | 1.01
ACCTACATAT | 1.22
CAACGGATAA | 1.02
CGAGGTGAG | 1
TTGGGTGCT | 1.05
TCCGCACTGT | 4.58
TTGTCGAATC | 1.09
TGAGGATCAC | 1.07
TCATACCGGC | 1.08
GAAAAGCCTG | 1.01
GCGGAAGTTT | 0.972
CTGCTTTTGC | 0.984
TGCGAGACGA | 1.14
CGTAATGGAT | 0.99
CAGCAGAGTC | 1.11
GGGCGGCGAA | 1.03
GGGCGTTCGG | 0.977
TGTCTGTAAT | 1
ACCTCCTCTA | 1.95
TAGAGATGT | 0.978
AGATGGCCAG | 1
ACTGTGACCC | 1.23
CTGTGATGTC | 1.03

Sequence | switch fluorescence ratio
TACTGGCTT | 1.05
AAGCTTTATC | 1.02
TCTAGAGAAT | 0.981
ACTCTATTCG | 1.08
CTCTGACGGG | 1.02
GTGGGAGGTC | 0.927
GACATTTGGG | 0.946
TTCGCGGAAC | 2.07
CTTGCTTGG | 0.956
GGAAACACTC | 1.03
TCTTTCTCTC | 1.05
CCCTTGAGTC | 1.03
CCCGTCTATA | 1.34
TGCCGCATTC | 1.51
ACGATGGATC | 1.08
TCGCCGTTGG | 0.992
AGTGGGGCAC | 0.994
TTGAAGCCGT | 0.968
CAAAGTGGGA | 0.957
TAAATACGAA | 1.03
CTAACCGAGG | 1.01
GTGTTATGAC | 1.05
TATTTCCGGA | 0.987
GGAAAAAGAG | 1.03
TGTCGGCCTT | 0.984
CCGTTTAGTA | 1.02

Sequence | switch fluorescence ratio
CTGTAGTAGT | 1.29
GACGGGTAAG | 0.989
TAAAGCCCTG | 0.96
ATGTTCGCAC | 1.14
CAGGGGCTA | 1.04
CACGTATACG | 1.01
CAGATCCGGT | 1.03
CTTAAATGGA | 1
TGGGGTAACT | 0.977
TCTGACTCTA | 1.22
AAGACAAAGC | 1.01
CGACGCGAGG | 3.35
GGTAACATAA | 1.01
CCGGGTGGAA | 0.991
CTTCCGGCC | 2.09
CTGGTTTTAA | 1.05
AACTGTAGAG | 1.04
TAATGAATCC | 1
CGCCAATGTT | 1.09
GTCACGGGGC | 0.999
GTCTCAAAGT | 0.99
CGCTGGTCAG | 0.956
CTAGCCCTCT | 1.01
GGCACGCAGG | 1.03
ACTTAGGTCG | 1
TCACATGTTT | 0.987

Sequence | switch fluorescence ratio
GTAGGCAAAA | 1.05
CACACAGGTG | 5.04
ATAAAATGA | 1.02
TGCGACGGCG | 1.01
CCTCGCTTCT | 3.69
TCTCGAATAT | 1
GTTTCAATAA | 1.01
AGGCTCGGGC | 0.947
TGTGCAAGCG | 1
TTAGGGCATG | 1.01
ACATGTACCT | 1.33
GGGGCCTTCC | 3.2
ATGCAAGGAG | 1
TTCTGGCGGT | 0.967
ATGGGTATTA | 0.985
TACGTGATTG | 1.07
CGGAGTATCT | 1.07
AATCTATTGA | 1
AGGGCAACCT | 1.05
GGACTTAGCT | 0.974
GGTCGATG | 0.977
CTCGGGTGGC | 0.985
CAGGTCTAGT | 0.992
CGAGAGAGGT | 0.962
TTTCGTGATT | 2.92
TACCACGCAT | 1.52

Sequence | switch fluorescence ratio
CCGGTAGAGG | 1.02
GAATGTGTCG | 1.01
ATTCATAAGG | 1.01
AGGCGATGTG | 1.01
ACGGCAAATA | 1.2
CGTATATAAC | 1.11
TCCTCCTGTT | 1.78
GGGGAAGGCG | 1.01
GGGCAAGCCC | 1.03
TTCAGATCGT | 0.972
CATAAATTA | 0.939
ATAGTGTCAT | 0.988
ACTCAGGTCA | 1.08
ATTATACAAT | 1.03
GTTTGTATCC | 0.975
CGGTGGCCCT | 0.98
ACATCGTACC | 1.05
TTCACTCGTT | 1.05
ATTGGCCGTT | 1.02
GTAGTAAGAG | 1.13
TGTTATTGA | 0.968
TTACATCGAC | 1.05
GGCCCCCTTT | 1.03
TAATGTCGTT | 0.955
AGTGGGCGG | 0.988
GCATGCTGT | 0.995

Sequence | switch fluorescence ratio
AATGCGTTAT | 0.997
CCAGCGGTTT | 0.991
TTCTTTTCGC | 1.53
TGGCGTTGGA | 1.02
TGGCGGATTG | 0.99
GATAGGGTTG | 0.998
CTTGGACTGT | 1.01
TGAGCGTCAG | 0.987
ATCCAACTT | 1.05
AAGGCTATGC | 1.1
ACTCTAGAC | 1.2
CGCATATGGT | 1.77
GTTAATGAAA | 1.02
AGGGAGCTAC | 1.42
TGAATGCGTA | 1.02
CCATGGGTTT | 1
GCCAGAGACG | 1
TGGGATAACA | 0.996
GTAAGGGTCC | 0.919
CATGCATCGT | 1.05
TCAGAAGTGG | 0.969
TTAATCAGTG | 0.999
CGCCCTATTC | 1.22
GCATGTAAGT | 1.02
GATTCACTTG | 1.01
GATGAAGTG | 0.969

Sequence | switch fluorescence ratio
ATTATAATTA | 1.03
AAAAAAGAGT | 0.977
GGTTGCACCC | 1.02
ACTGGCGCTT | 1.03
TCCTCCGGCT | 1.01
GAGGGATCAA | 0.987
TTATACGAAG | 1.04
ATGGTCCCAC | 0.948
AGAGCAGAAC | 1.56
AGGAACAAGC | 1
AAACCTTTAT | 1.19
ACCATGGAAT | 1.01
ATAAGTTCGC | 0.968
AGTTCTATTC | 0.972
ATGGTTCGGC | 0.939
TACCAGTATG | 0.971
TAGCTCGACA | 0.973
GAAACCGAGC | 1.22
ATACTTTGG | 1.03
